According to the supplement of paper PMC12217912:
This is one part of the list. The full chains were built here from the parent and the listed change. Values near 0.05 are background.

B1: TEV protease; numbered along this chain (parent)
chain: MGESLFKGPRDYNPISSSICHLTNESDGHTTSLYGIGFGPFIITNKHLFRRNNGTLVVQSLHGVFKVKDTTTLQQHLVDGRDMIIIRMPKDFPPFPQKLKFREPQREERICLVTTNFQTKSMSSMVSDTSCTFPSGDGIFWKHWIQTKDGQCGSPLVSTRDGFIVGIHSASNFTNTNNYFTSVPKNFMELLTNQEAQQWVSGWRLNADSVLWGGHKVFMVKPEEPFQPVKEATQL

Variants of: B1
Assay: raw area under fraction-flipped curve 0-4 h after induction (AUC4h, not background-subtracted), DNA-recorder readout of cleavage of the substrate (dimensionless); higher = more cleavage of the substrate by the protease variant
Settings: temperature: 34 °C; time window: 0-4 h after rhamnose induction
Experimental: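 In vivo DNA recorder in E. coli TOP10(DE3) ΔrhaA at 34 °C. Each TEVp single-site mutant (parent TEVp 0) is paired with a single-site variant of the 7-mer TEVs (canonical ENLYFQ|S). The substrate sits between flexible linkers in a Bxb1-sfGFP-TEVs-SsrA fusion, so cleavage stabilises Bxb1 and speeds flipping of a recombination array, read by NGS. The value is the raw area under the fraction-flipped curve over 0-4 h after rhamnose induction (AUC4h), with ≥20 reads per time point. It is not background-subtracted; inactive controls average about 0.047.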
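Further: Bxb1 expression induced with 0.2% (w/v) L-rhamnose at OD600 near 0.5, cultures sampled hourly, flipped fraction per protease–substrate barcode pair counted by paired-end Illumina sequencing.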

Variant	area with substrate ENLYCQS	area with substrate ENLYDQS	area with substrate ENLYEQS	area with substrate ENLYGQS	area with substrate ENLYHQS	area with substrate ENLYIQS	area with substrate ENLYLQS	area with substrate ENLYMQS	area with substrate ENLYNQS	area with substrate ENLYPQS	area with substrate ENLYQQS	area with substrate ENLYRQS	area with substrate ENLYSQS	area with substrate ENLYTQS	area with substrate ENLYVQS	area with substrate ENLYWQS	area with substrate ENLYYQS	area with substrate ENLYKQS
R204F	0.0818	0.07	0.0627	0.0984	0.0817	0.151	0.119	0.113	0.0733	0.0746	0.0659	0.0511	0.105	0.089	0.134	0.0751	0.0689	–
E25W	–	0.0559	0.0577	0.0496	0.072	0.138	0.0908	0.0808	0.069	0.0676	0.0707	0.0641	0.0539	0.0907	0.116	0.0752	0.0654	0.0477
K230C	0.0705	0.0647	0.0637	0.0592	0.0362	–	0.0787	0.0743	0.0569	0.0528	–	–	0.0665	0.0745	0.15	0.0862	–	0.0739
D69E	–	0.0597	0.069	0.0644	0.065	0.109	–	0.078	0.052	0.0592	–	0.0472	0.0531	–	0.0879	0.0843	0.0902	0.0221
I15E	–	0.0391	0.0526	0.0536	0.0571	0.0881	–	0.0654	0.0588	0.0507	0.0509	–	0.068	0.0726	0.0796	0.0603	–	0.0573
I15Q	–	0.0557	0.0902	0.0533	0.0483	0.117	0.0718	0.0763	0.0682	0.0607	0.0658	0.0549	0.0689	0.071	0.116	0.0672	0.0617	0.0585
D149Y	0.0787	0.0589	0.0479	0.0598	0.0569	–	–	0.076	0.071	0.0705	0.0565	0.0593	0.064	0.0341	0.0427	0.0682	–	0.0586
V165R	0.0529	0.0533	0.0511	0.0457	0.0587	0.0517	0.0455	0.0474	0.05	–	–	0.056	0.0543	0.0467	0.055	0.0451	0.0698	0.0684
T176K	0.0806	0.067	0.058	0.0538	0.0539	0.0779	–	0.0667	0.0339	–	0.0597	0.0656	–	0.0649	0.0491	0.0357	0.0629	–
F65G	–	0.0488	0.0516	–	0.063	0.106	0.0714	0.072	0.0692	0.0743	0.0799	0.0629	–	0.108	–	–	0.0774	0.0096
S130Y	0.0783	–	0.0685	0.066	0.0576	0.11	0.0753	0.0814	0.0637	0.0654	–	0.0571	0.0724	–	–	–	0.063	0.0428
H47E	–	0.0592	0.0578	0.0716	0.058	0.0728	–	0.0588	0.0619	0.0554	0.0693	0.0618	0.0631	0.0752	–	0.0581	0.0587	0.0644
L156H	0.0503	0.0606	0.0498	0.0598	0.0592	0.0586	0.0577	0.0635	0.0652	0.0594	0.0615	–	0.0651	0.0557	0.0616	0.0573	0.0525	0.0464
S26N	–	0.0622	0.0632	0.06	0.0721	–	0.0476	0.0708	0.0649	0.0456	–	0.0741	–	–	0.0808	0.0781	0.0578	0.0465
S26P	–	0.0538	0.0602	0.0581	0.054	0.064	0.0353	0.0532	0.0419	0.0573	0.0562	0.0827	–	0.0517	0.0764	–	0.0522	0.0575
R10M	–	0.0611	–	–	–	0.117	–	–	0.0667	–	–	–	–	0.0885	0.107	0.0806	0.0603	0.0682
Q227L	0.066	0.0695	0.077	–	–	0.122	–	0.0899	0.0528	0.102	0.0583	0.0633	0.0776	0.0665	0.149	0.0822	0.0704	0.0554
Q227K	0.12	0.0642	0.0846	0.072	0.0631	0.119	–	0.0925	0.0762	0.0649	0.06	0.0502	0.0738	–	–	0.081	–	0.0595
E3H	–	0.065	0.0735	0.0676	0.0698	0.111	–	0.0504	0.0863	0.0776	0.0733	–	0.0823	0.0731	–	0.0853	0.0597	0.0626
G28I	–	0.0479	0.0646	0.058	0.0358	0.102	0.0324	0.0642	0.0501	0.0639	0.0589	0.0461	–	0.0978	–	0.112	0.0621	0.0425
I43Q	–	0.0551	0.0408	0.0471	0.0448	0.0484	–	0.0438	0.0559	0.0558	0.046	0.0317	–	0.0431	0.0495	0.0472	0.0425	0.0429
I43N	–	0.0567	0.048	0.0406	0.0323	–	0.0404	0.0447	0.0465	0.0424	–	–	0.0468	0.0514	0.0356	0.0457	–	0.0428
I43S	–	0.0627	0.0562	–	0.0513	–	–	0.0527	0.0517	0.0669	0.061	0.045	0.0481	0.0373	–	0.047	0.0542	0.0432
G37T	–	0.0569	0.0582	0.0699	0.0706	–	–	0.0487	0.0673	0.0654	–	0.0566	0.0629	0.0783	0.091	–	–	0.0431
